Usually stoichiometry N stands for a count of units in the complex or per binding partner.

This passage reports stoichiometry N results from paper PMC13054468.

The assay has as its target T1, avidin, P02701.
T1 chain: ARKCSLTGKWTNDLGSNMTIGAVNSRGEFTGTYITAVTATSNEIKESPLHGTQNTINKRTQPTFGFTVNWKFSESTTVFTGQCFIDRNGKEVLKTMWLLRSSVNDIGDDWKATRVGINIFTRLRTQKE
The assay is described as follows: native MS; modified TIMS-Q-SID-TOF; 200 mM ammonium acetate, with or without charge reduction by 20% (v/v) TEAA; 0.7 to 3 uM per complex; single charge state isolated and fragmented by surface-induced dissociation. The note with it: remark: other sources report otherwise.

B1: avidin, P02701 25-152 (natural protein)
chain: T1 chain
Molecule B1 yielded a stoichiometry N of 4.
